# Results published in paper PMC4242493.
# The other results are listed elsewhere or left out. The list includes weakly bound sequences.
# Target: MaxL homodimer (UniProt P61244)
# Assay: universal protein-binding microarray (PBM)
# Conditions: PBS-based mixture, 10 nM His-tagged protein dimer, 2% milk, 200 ng/uL BSA, 50 ng/uL salmon testes DNA, 0.02% TX-100; detection with Alexa 488 anti-His …; high values mean tight binding; most listed sequences are background and not binding sites; double strand, one strand shown
# Chain of UniProt P61244 (P61244 whole entry): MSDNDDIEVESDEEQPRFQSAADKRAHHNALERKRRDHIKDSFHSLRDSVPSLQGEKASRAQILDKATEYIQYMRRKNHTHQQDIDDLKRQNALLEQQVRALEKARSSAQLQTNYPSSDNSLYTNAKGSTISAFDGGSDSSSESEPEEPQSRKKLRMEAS
row,Sequence,binding signal (normalized occupancy)
1,ACATGTGG,0.209
2,CAATAGAC,0.0726
3,GGTCGTAC,0.0754
4,CGTGGCAG,0.0869
5,CCTGACTC,0.0726
6,CCGAGGAA,0.0732
7,AGGCCAAG,0.0714
8,CAGGGCCG,0.067
9,AGCATAAA,0.0804
10,ATGTCCGG,0.0748
11,GTGCCCGA,0.0729
12,ACCTGGAA,0.0771
13,GAGGTCTA,0.074
14,CCTGAATC,0.0737
15,ATTGTGTG,0.0839
16,AGTCAAAT,0.0746
17,CATAAACA,0.0744
18,CTGGAGGC,0.0733
19,AAATCTCA,0.0773
20,ATATACTA,0.087
21,AAAAGGCT,0.0703
22,GAATATTA,0.0775
23,CTTGACGC,0.0715
24,CCTAATTC,0.0746
25,CGCAGGAC,0.0705

row,Sequence,binding signal (normalized occupancy)
1,CCATAAGG,0.0874
2,CAGGATGC,0.0729
3,GGATGGAC,0.0771
4,CTATACGC,0.0743
5,ATATATTG,0.0866
6,AGAATCCA,0.074
7,GACTGTGA,0.0764
8,CTGGACCC,0.0697
9,GCTGAGTA,0.0667
10,GGTATACC,0.0747
11,CCGAGCGA,0.0659
12,ACGATCAC,0.0754
13,CAAATAGA,0.0771
14,CATGCGAA,0.0898
15,AGGCATTA,0.0707
16,ACGCTTGC,0.0702
17,GTTAGCAA,0.0727
18,AGACTCTC,0.0766
19,AATGCAAT,0.0742
20,CAGCACAA,0.0753
21,ATTTGCCG,0.0669
22,ATATGGAA,0.0869
23,CTTCGATC,0.0681
24,CTCAGCGC,0.0701
25,CCGAGAGG,0.0685

row,Sequence,binding signal (normalized occupancy)
1,AATCATCG,0.0795
2,ACGTTCAA,0.0795
3,CCGGAAAG,0.0655
4,ATCAGATA,0.0785
5,AGGTGGGC,0.0818
6,GCGGTAGC,0.0718
7,CGTTAACA,0.0785
8,AACTACAT,0.0852
9,CTTGATAC,0.0802
10,GTACGGCA,0.0724
11,CTACGCTA,0.0699
12,AGTACGCC,0.0673
13,ATAGTTGC,0.0808
14,AAGAAAAC,0.0699
15,TAGCCATA,0.0814
16,CCTATCCC,0.0801
17,AGCGACGC,0.0691
18,GAAACCGC,0.0706
19,CGTAAGTC,0.0757
20,CCAGGAAG,0.0703
21,TTAAACAA,0.0715
22,CAGCTGAA,0.0749
23,TAAGTACA,0.0831
24,CTCAACTA,0.0747
25,CAAATATG,0.0846

row,Sequence,binding signal (normalized occupancy)
1,AAATTATT,0.0751
2,ACATTATG,0.0869
3,AGTTTCCG,0.0674
4,AGCTGCCC,0.0668
5,CATATATC,0.0836
6,AACGATCG,0.072
7,CTAGCGCA,0.07
8,AGAGGTTA,0.075
9,AAACTACT,0.0727
10,AGCGTGAT,0.1
11,CGTGGGCC,0.0805
12,GATGGAAC,0.0776
13,CAAGCTTA,0.0669
14,ACCGCAAT,0.0686
15,GTTGCGAA,0.0704
16,CGTTATAC,0.0776
17,CGTCTGCA,0.0724
18,CCCCAGTA,0.0805
19,TGGGCACA,0.079
20,AGCGTCTC,0.0715
21,AGGCGACG,0.0683
22,AGGCTAGA,0.0688
23,CTCCGCAG,0.0709
24,ACGACAAG,0.079
25,TAGCGGGA,0.0705

row,Sequence,binding signal (normalized occupancy)
1,ACATTCTC,0.0767
2,ACCCCTAT,0.0844
3,AAAACAGG,0.0733
4,CAAGTGCA,0.0781
5,ACACCCAT,0.0898
6,GTCAGGAC,0.0691
7,AGCCTATG,0.0742
8,CTCGCGGA,0.0788
9,ATGAGACG,0.0745
10,CATTATGC,0.0836
11,TCTACAGA,0.0715
12,AACCTCGG,0.0682
13,CATTCATA,0.0838
14,ATAGAACA,0.0789
15,ATCCACAC,0.083
16,CTGGACTC,0.0689
17,AATAGAGT,0.0745
18,AAGGATTC,0.077
19,GGTACAGA,0.0715
20,AATGTCTC,0.0821
21,AGTCCGGC,0.0693
22,ACGACAGT,0.0734
23,ATACGCTA,0.0776
24,GAATCTTA,0.0711
25,TAGGACAA,0.0754

row,Sequence,binding signal (normalized occupancy)
1,ATCGGCGA,0.0686
2,CATTCTGG,0.077
3,AAGCTAAT,0.0749
4,CGAAAAAC,0.0696
5,ACCACAAT,0.0804
6,GACATCCA,0.0748
7,CATCCAAG,0.075
8,ATGAAACC,0.0781
9,AAGCGAGG,0.0741
10,TGGTAAAA,0.0733
11,ACTTATTG,0.0735
12,AGCCTCGG,0.07
13,ACACCTCC,0.0781
14,AGCGCATC,0.0737
15,GTTGTGCA,0.0754
16,GGCGTTAC,0.0702
17,AAGAATCC,0.0704
18,GGGGTATA,0.0888
19,CATGCTGC,0.122
20,CCGTGGGA,0.0775
21,AGAACGAC,0.0774
22,ATGCCTGG,0.0781
23,AGAAGCTA,0.0715
24,AGATATGA,0.0807
25,GTGACAAA,0.0805

row,Sequence,binding signal (normalized occupancy)
1,CCACAATA,0.0775
2,AAAGCAAC,0.0699
3,TACACGAA,0.0774
4,CCAAAAGC,0.0644
5,CTCGGTAC,0.0736
6,ACGGCAGA,0.0744
7,ATCAAGAA,0.0807
8,ATCACGAG,0.0932
9,ACGATTCG,0.0779
10,CTGGTTCA,0.0716
11,GTTTTTTA,0.07
12,CGGTAGTC,0.0674
13,AAAATCTT,0.0679
14,GGAGCCTA,0.069
15,CTGAGAAA,0.0731
16,AGGGCCGC,0.0729
17,AGGCTTCA,0.069
18,ATGTACAC,0.0906
19,CTCCACTA,0.0729
20,ATAAGGAA,0.076
21,CGGACTTC,0.071
22,CCAGTAAC,0.0745
23,AGTGGCCA,0.0734
24,AAATACAG,0.0766
25,ACCAAATC,0.0779

row,Sequence,binding signal (normalized occupancy)
1,ACTGCAGA,0.0732
2,AATCCTCT,0.0734
3,CTGTGTTC,0.0742
4,CGCCTACG,0.0728
5,CAGCATCA,0.0768
6,CAACTCCC,0.0763
7,ATAATTAC,0.0794
8,AAATGATG,0.0795
9,CAGCCACG,0.0806
10,GCTGCAAA,0.0687
11,ACGAGAAA,0.0699
12,AGCATTGA,0.0777
13,AGTTGTGA,0.0763
14,ACAGCGCC,0.0698
15,CAGGCCCC,0.074
16,AAAAGACT,0.072
17,CTGACAAG,0.075
18,GGGCAACC,0.0687
19,GCGGGGCC,0.0693
20,GCTGGGCC,0.0659
21,ACACACAC,0.0915
22,TACCGCAA,0.0787
23,CGTACATC,0.0836
24,ATCGAGGC,0.0755
25,ACTAGGCC,0.0722

row,Sequence,binding signal (normalized occupancy)
1,ACACTGCT,0.0793
2,ATCCCAAT,0.0808
3,CGGCTCTC,0.0682
4,GAGGAGGC,0.0782
5,ACTCTTCG,0.0747
6,CGATCATA,0.0845
7,ACCAGAAC,0.0763
8,GCCGACAA,0.07
9,AAGACTCA,0.074
10,AGGTGATA,0.0839
11,CCAGTTAC,0.0773
12,TATAAGGA,0.0807
13,TTGGGAAA,0.0769
14,CAATTACC,0.0784
15,GTGTATGA,0.0901
16,CGTGGTAG,0.089
17,CTGGGGCA,0.0708
18,AACCAGGA,0.0727
19,ATAGGAAG,0.0755
20,ATGCCCGG,0.0744
21,GCGTGGCA,0.121
22,ATGTCAAA,0.0788
23,CGTTCTAG,0.0783
24,AGGACCGC,0.0725
25,CCGAACGC,0.0695

row,Sequence,binding signal (normalized occupancy)
1,AGCGACGA,0.0714
2,ACACCAGT,0.0764
3,CAGTTGGG,0.0768
4,GTTTGTGA,0.0718
5,CAGTGCCC,0.0678
6,CGTTCGGC,0.0711
7,ACGCTGCC,0.0776
8,AACGACCA,0.0725
9,GACTCATA,0.0763
10,AGTATAGG,0.0786
11,AACGCCGC,0.0718
12,GGTCTTTA,0.0763
13,CACGCTTC,0.098
14,GCGAATGA,0.0779
15,GATTTCGC,0.069
16,AGCAGGTA,0.0762
17,AAGTGAGC,0.069
18,GGCGTCAA,0.0717
19,AAATTTCA,0.0744
20,AGGATAAG,0.0725
21,GTTTACCA,0.0757
22,ACGCCGTG,0.075
23,GAAGGTGA,0.071
24,AGTTCAAC,0.0774
25,GAGTGTGC,0.0774

row,Sequence,binding signal (normalized occupancy)
1,GCGCTGCA,0.0708
2,GGAATCTA,0.0873
3,CCGCACTC,0.0756
4,AGTCATCG,0.0751
5,AGATGGTC,0.0826
6,CCATTTGC,0.0748
7,GAAATGCA,0.0772
8,AAGACGAT,0.0737
9,AGCTCATA,0.0703
10,GGGCCGGA,0.0677
11,GGTACGCA,0.0798
12,AGGATTCA,0.0762
13,ACCACACT,0.0849
14,GAGCTCAA,0.0656
15,GCCAGCTA,0.0716
16,ATGCCTTG,0.0819
17,CGGCTGTA,0.07
18,GAGGGAAA,0.0787
19,CCCGTACA,0.0792
20,GAAATCTC,0.074
21,ACCGACTA,0.0676
22,GCAGGACC,0.0701
23,CGCTCGAG,0.0757
24,CGTTGTTA,0.0763
25,ACTTTACC,0.0744

row,Sequence,binding signal (normalized occupancy)
1,AGTCGGAT,0.0718
2,AATCGATA,0.0789
3,GAGAGAGA,0.074
4,CTCCTATC,0.0801
5,AGGCTTAT,0.0808
6,AGAACCCC,0.0776
7,AGAAGCAA,0.0747
8,GAAGAACA,0.0777
9,CCAGGCAC,0.0765
10,CAGTTCAC,0.0717
11,GTCCAACA,0.0759
12,TCACCAGA,0.0742
13,ACCCTTAA,0.0759
14,CAACTCGG,0.0686
15,GACATTCC,0.0736
16,GGACCAGA,0.0704
17,AGACGAAG,0.0673
18,ACATGGAT,0.101
19,GGCAGGAC,0.0699
20,CGGGAGCC,0.07
21,GCACCGTA,0.0707
22,AGCGGGCA,0.0695
23,ACCCCCTC,0.0819
24,ATACTTGC,0.08
25,AGTGAGGG,0.0773

row,Sequence,binding signal (normalized occupancy)
1,ACGGTCGC,0.071
2,GATGACAC,0.0785
3,CGTAACAC,0.0802
4,GGTCTTAA,0.075
5,CGAGAGCG,0.071
6,CCGAGTTC,0.0705
7,CGTAAGCA,0.0776
8,ATTCGTAG,0.0806
9,CTGCAGTC,0.069
10,ACGATTAC,0.0835
11,CTTTTTAC,0.0753
12,CTTAACAC,0.0808
13,AGACCAAA,0.0707
14,GAGAGCTC,0.0698
15,ATACGCCA,0.0747
16,CAATGGGC,0.0697
17,TAATCGGA,0.0682
18,CACGTCCA,0.0876
19,ACGGTTTG,0.0687
20,ATGCCGAG,0.0729
21,GCAACTCC,0.0726
22,AACACTAG,0.0804
23,ACCGTACG,0.0765
24,CGCCAGAC,0.0709
25,ACATCCGG,0.0742

row,Sequence,binding signal (normalized occupancy)
1,CTCATAAC,0.0813
2,AGGGTAGG,0.0754
3,AGCATCTA,0.0749
4,CGGAGTCA,0.0757
5,AGAGCCGA,0.0723
6,GCATATTA,0.0814
7,CCTCCACA,0.08
8,ACCCCGGC,0.0753
9,GATTAAGC,0.0715
10,CGGACTGA,0.0701
11,CACTCAAC,0.0738
12,CTTACGGA,0.0709
13,ACAGCGTA,0.0694
14,GCTGTCAC,0.0813
15,AGAGCTTA,0.0748
16,CCAGTGGA,0.072
17,GATACTAA,0.0759
18,ACAAAGCT,0.0696
19,ATCTACAG,0.0738
